Some of the results follow. The data describe in vitro nicking of single-stranded DNA by Rep domains at 3 µM enzyme and 37 °C for 1 h; the strands have 90 letters, of which the middle is given. Values are log2 of uncut reads against the no-enzyme pool; uncut sequences lie near 0, cut ones below; no hit call is given. The scaling is to total reads; uncut strands gain when others are lost, and binding without cutting may add a little.
Key:
Assay in all cases: uncleaved DNA left, log2 of reads against the no-enzyme library (log2 ratio); higher = less cleavage (more negative = more Rep cleavage of the k-mer); sequences stand for … in CTCGTCCG…ACCGGAGA
[1] = test system: T1, Rep nickase domain of Muscovy duck circovirus
T1 sequence (residues 1-111 of Rep, tag left off): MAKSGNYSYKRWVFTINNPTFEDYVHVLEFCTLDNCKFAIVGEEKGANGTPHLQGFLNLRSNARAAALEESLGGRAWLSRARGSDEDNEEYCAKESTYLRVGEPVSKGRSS
Experimental: (§1)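 A pool of 90-nt single-stranded DNAs with seven random bases just before the constant AC of the nick site (name = the seven bases) was cut by 3 µM recombinant His6-SUMO-tagged Rep nickase domain (300 nM DNA, 50 mM HEPES pH 8.0, 50 mM NaCl, 1 mM MnCl2, 1 h, 37 °C, three replicates). Uncut DNA was amplified and sequenced.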

[2] = test system: T2, Rep nickase domain of banana bunchy top virus
T2 sequence (residues 1-94 of Rep, tag left off): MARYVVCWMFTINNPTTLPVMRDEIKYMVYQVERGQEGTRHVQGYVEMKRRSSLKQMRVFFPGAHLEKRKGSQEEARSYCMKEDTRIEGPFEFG
Experimental: as §1

[3] = test system: T3, Rep nickase domain of cabbage leaf curl virus
T3 sequence (residues 1-116 of Rep, tag left off): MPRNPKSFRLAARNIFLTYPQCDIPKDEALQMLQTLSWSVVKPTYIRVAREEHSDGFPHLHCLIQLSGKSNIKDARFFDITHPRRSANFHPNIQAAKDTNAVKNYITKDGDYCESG
Experimental: as §1

[4] = test system: T4, Rep nickase domain of chickpea chlorotic dwarf virus
T4 sequence (residues 1-124 of Rep, tag left off): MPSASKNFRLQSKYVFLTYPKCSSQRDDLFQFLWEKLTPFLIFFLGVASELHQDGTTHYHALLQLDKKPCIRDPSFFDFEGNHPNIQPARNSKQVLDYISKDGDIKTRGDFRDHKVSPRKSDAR
Experimental: as §1

[5] = test system: T5, Rep nickase domain of faba bean necrotic yellows virus
T5 sequence (residues 1-98 of Rep, tag left off): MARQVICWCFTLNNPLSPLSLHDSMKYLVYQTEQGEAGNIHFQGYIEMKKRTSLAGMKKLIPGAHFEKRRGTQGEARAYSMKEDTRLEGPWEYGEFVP
Experimental: as §1

[6] = test system: T6, Rep nickase domain of maize striate mosaic virus
T6 sequence (residues 1-117 of Rep, tag left off): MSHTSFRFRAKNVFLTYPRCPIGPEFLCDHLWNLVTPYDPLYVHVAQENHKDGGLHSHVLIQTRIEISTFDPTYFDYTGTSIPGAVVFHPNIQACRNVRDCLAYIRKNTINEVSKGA
Experimental: as §1

[7] = test system: T7, Rep nickase domain of porcine circovirus 2
T7 sequence (residues 2-116 of Rep, tag left off): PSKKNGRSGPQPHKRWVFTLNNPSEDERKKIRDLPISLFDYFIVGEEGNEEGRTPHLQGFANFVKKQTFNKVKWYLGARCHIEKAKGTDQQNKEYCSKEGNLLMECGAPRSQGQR
Experimental: as §1

[8] = test system: T8, Rep nickase domain of tomato golden mosaic virus
T8 sequence (residues 1-124 of Rep, tag left off): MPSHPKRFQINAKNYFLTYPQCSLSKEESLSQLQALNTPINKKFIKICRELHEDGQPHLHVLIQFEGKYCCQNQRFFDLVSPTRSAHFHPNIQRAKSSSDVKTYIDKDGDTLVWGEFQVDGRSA
Experimental: as §1

[9] = test system: T9, Rep nickase domain of tomato yellow leaf curl virus
T9 sequence (residues 1-136 of Rep, tag left off): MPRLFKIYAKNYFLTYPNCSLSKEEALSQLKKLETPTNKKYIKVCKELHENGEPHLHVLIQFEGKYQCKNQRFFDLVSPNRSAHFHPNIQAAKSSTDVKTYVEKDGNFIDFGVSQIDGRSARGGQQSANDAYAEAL
Experimental: as §1

[10] = test system: T10, Rep nickase domain of wheat dwarf virus
T10 sequence (residues 1-137 of Rep, tag left off): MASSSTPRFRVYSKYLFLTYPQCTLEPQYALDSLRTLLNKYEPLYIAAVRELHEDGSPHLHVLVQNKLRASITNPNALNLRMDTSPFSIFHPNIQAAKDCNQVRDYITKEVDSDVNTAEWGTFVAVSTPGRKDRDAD
Experimental: as §1

Sequence	uncleaved DNA left (log2) [1]	uncleaved DNA left (log2) [2]	uncleaved DNA left (log2) [3]	uncleaved DNA left (log2) [4]	uncleaved DNA left (log2) [5]	uncleaved DNA left (log2) [6]	uncleaved DNA left (log2) [7]	uncleaved DNA left (log2) [8]	uncleaved DNA left (log2) [9]	uncleaved DNA left (log2) [10]
TGATAAT	-3.58	-0.0612	-0.144	-1.76	-0.1	-0.0524	-3.52	-0.02	0.0898	-0.445
TCCAGGG	-0.0525	-0.0832	0.0118	0.368	-0.114	-0.369	0.0602	-0.0907	-0.0883	-0.0731
GTCGCCA	-0.0671	0.016	0.304	0.716	-0.029	1.58	0.123	0.139	0.0169	0.073
GGAGACC	0.141	0.134	0.87	1.99	0.0375	2.11	0.298	0.109	0.143	0.162
ATCGCCT	-0.106	-0.199	-0.351	-1.52	-0.154	-0.758	-0.112	-0.125	-0.1	-0.19
GTAGCAT	-0.00903	-0.0233	0.202	0.811	-0.0852	1.84	0.0556	0.0544	0.0424	-0.0418
GGAGTGC	0.00907	0.0046	0.377	0.921	-0.113	0.618	0.0867	-0.0704	-0.0172	0.0597
AAACGTG	0.0533	0.0283	-0.57	-0.761	0.0425	-1.07	0.155	0.0802	0.00895	-0.0287
ATTTGCA	0.00151	0.0584	-0.774	-0.604	0.12	-1.09	0.208	-0.0227	0.0957	0.0141
TGGACTT	0.0262	-0.0505	0.83	1.89	-0.0522	2.16	0.13	-0.168	-0.0589	0.116
CCCTTTA	-0.233	-0.176	-0.266	-1.51	-0.0678	-0.817	-0.26	-0.143	-0.204	-0.393
TCCGGAG	0.103	-0.155	-0.265	-0.0301	-0.201	-0.506	-0.0178	-0.000957	-0.146	-0.102
CTCTCCA	-0.0692	-0.0816	-0.116	-0.31	-0.0535	0.452	-0.104	-0.19	-0.13	0.0524
GATATAC	0.121	-0.00576	0.264	0.429	-0.0417	0.782	0.147	0.0677	0.111	0.0419
GACGGCG	0.0819	-0.0384	-0.623	0.247	0.125	-0.696	0.0524	-0.0507	0.00817	-0.179
TTCTAAA	-0.0168	0.0132	0.14	-0.0146	0.077	0.123	-0.0599	0.051	-0.0189	0.0292
TCGAGGA	-0.0504	-0.0589	0.018	0.257	-0.0552	-0.143	-0.169	-0.122	-0.107	-0.171
TACGCTT	0.0523	-0.133	-2.7	-2.75	-0.0842	-0.788	-1.97	-0.251	0.0528	-0.395
GGTGGGC	0.0891	0.0203	0.684	1.42	-0.0269	1.89	0.166	-0.0342	0.0919	0.0147
TTTCACA	0.0469	-0.0191	0.27	-1.04	0.065	0.412	-0.124	0.0555	0.123	-0.00992
TTGGTGA	-0.0159	-0.0381	-0.166	-0.218	0.047	-0.821	0.156	-0.0427	0.0801	-0.0542
TACCCTT	-0.0493	-0.185	-1.19	-2.57	0.106	0.195	-1.49	-0.299	-0.00203	-0.17
CGATGTG	0.0317	0.0155	-0.324	-0.18	0.0194	-0.513	0.143	0.156	0.0528	0.114
CTAGATG	-0.007	0.0871	-0.0471	0.555	-0.0927	0.199	0.201	0.0754	-0.102	-0.0333
TGGGCTC	0.193	0.17	0.858	1.72	0.127	2.19	0.27	0.0996	0.0876	0.151
CAATGGA	0.0865	0.0301	-0.184	-0.238	0.121	-0.819	-0.225	0.0223	0.0841	0.08
CTTGAGG	0.0557	0.0543	0.473	1.35	0.0783	1.45	0.138	0.152	-0.112	0.0969
CTCTTGC	-0.1	-0.0367	-0.896	-0.696	-0.081	-1.34	-0.0172	-0.189	-0.233	-0.112
GACGCCG	-0.0852	0.0111	-0.6	-0.45	-0.00118	-0.924	0.181	0.0803	0.00427	-0.0537
ACGCAAG	-0.0423	-0.048	-0.709	-0.329	-0.0478	-1.2	0.0845	0.0421	0.0131	-0.0902

Reference: the supplement of paper PMC7826260
